# Results from the supplement of paper PMC8728848.
# This is one part of the list.
# B1: GH98CBM (Clostridium perfringens) (protein)
# chain: EVYALEESRDVYLSDLDWLNATHGDDTKSKIVQKNHPFTPGNNNQSTKISLKMEDGSISEFEKGLGTIAGSPSTITYDISGAGVTKFFSYLGIDRSANPINEQYAKVDKIEVVVDGKVIYSTINQFPNGLTYETPAIKVDLNIPENAKRLQLKSYAGEKTWGDEVVYADAKFTAKGDFVN
# How the values were obtained:
# Experiment in all cases: glycan array binding signal (z-score within array); higher = stronger binding
# Conditions in all cases: glycan notation: IUPAC condensed, linker removed
# [1] = biological target: Fuc(a1-3)[GalNAc(b1-4)]GlcNAc
# In short: (§1)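 Columns mapping to the same glycan were averaged after glycan names were converted to IUPAC-condensed notation. The data come from 3228 arrays in the Consortium for Functional Glycomics database, limited to those with an available protein sequence. Binding is reported as a within-array Z-score averaged across arrays of one protein sequence and across linkers.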
# Fuc(a1-4)GlcNAc = biological target: Fuc(a1-4)GlcNAc
# In short: as §1
# Fuc(b1-3)GlcNAc = biological target: Fuc(b1-3)GlcNAc
# In short: as §1
# Gal(a1-2)Gal = biological target: Gal(a1-2)Gal
# In short: as §1
# Gal(a1-3)Gal = biological target: Gal(a1-3)Gal
# In short: as §1
# Gal(a1-3)Gal(b1-3)GlcNAc = biological target: Gal(a1-3)Gal(b1-3)GlcNAc
# In short: as §1
# Gal(a1-3)Gal(b1-4)Glc = biological target: Gal(a1-3)Gal(b1-4)Glc
# In short: as §1
# Gal(a1-3)Gal(b1-4)GlcNAc = biological target: Gal(a1-3)Gal(b1-4)GlcNAc
# In short: as §1
# [2] = biological target: Gal(a1-3)Gal(b1-4)[Fuc(a1-3)]GlcNAc
# In short: as §1
# Gal(a1-3)GalNAc = biological target: Gal(a1-3)GalNAc
# In short: as §1
# [3] = biological target: Gal(a1-3)[Gal(a1-4)]Gal(b1-4)GlcNAc
# In short: as §1
# Gal(a1-4)Gal(b1-4)Glc = biological target: Gal(a1-4)Gal(b1-4)Glc
# In short: as §1
# Gal(a1-4)Gal(b1-4)GlcNAc = biological target: Gal(a1-4)Gal(b1-4)GlcNAc
# In short: as §1
# Gal(a1-4)GlcNAc = biological target: Gal(a1-4)GlcNAc
# In short: as §1
# Gal(a1-6)Glc = biological target: Gal(a1-6)Glc
# In short: as §1
# Gal(b1-2)Gal = biological target: Gal(b1-2)Gal
# In short: as §1
# Gal(b1-3)Gal = biological target: Gal(b1-3)Gal
# In short: as §1
# Gal(b1-3)Gal(b1-4)GlcNAc = biological target: Gal(b1-3)Gal(b1-4)GlcNAc
# In short: as §1
# Gal(b1-3)GalNAc = biological target: Gal(b1-3)GalNAc
# In short: as §1
# [4] = biological target: Gal(b1-3)GalNAc(b1-3)Gal(a1-4)Gal(b1-4)Glc
# In short: as §1
# [5] = biological target: Gal(b1-3)GalNAc(b1-4)Gal(b1-4)Glc
# In short: as §1
# [6] = biological target: Gal(b1-3)GalNAc(b1-4)[Neu5Ac(a2-3)]Gal(b1-4)Glc
# In short: as §1
# Gal(b1-3)GlcNAc = biological target: Gal(b1-3)GlcNAc
# In short: as §1
# [7] = biological target: Gal(b1-3)GlcNAc(b1-2)Man(a1-3)[Gal(b1-3)GlcNAc(b1-2)Man(a1-6)]Man(b1-4)GlcNAc(b1-4)GlcNAc
# In short: as §1
# [8] = biological target: Gal(b1-3)GlcNAc(b1-3)Gal(b1-3)GlcNAc
# In short: as §1
# [9] = biological target: Gal(b1-3)GlcNAc(b1-3)Gal(b1-4)Glc
# In short: as §1
# [10] = biological target: Gal(b1-3)GlcNAc(b1-3)Gal(b1-4)GlcNAc
# In short: as §1
# [11] = biological target: Gal(b1-3)[Fuc(a1-4)]GlcNAc
# In short: as §1
# [12] = biological target: Gal(b1-3)[Fuc(a1-4)]GlcNAc(b1-3)Gal(b1-3)[Fuc(a1-4)]GlcNAc
# In short: as §1
# [13] = biological target: Gal(b1-3)[Fuc(a1-4)]GlcNAc(b1-3)Gal(b1-4)GlcNAc
# In short: as §1
# [14] = biological target: Gal(b1-3)[Fuc(a1-4)]GlcNAc(b1-3)Gal(b1-4)[Fuc(a1-3)]GlcNAc
# In short: as §1
# [15] = biological target: Gal(b1-3)[GlcNAc(b1-6)]GalNAc
# In short: as §1
# [16] = biological target: Gal(b1-3)[Neu5Ac(a2-6)]GalNAc
# In short: as §1
# [17] = biological target: Gal(b1-3)[Neu5Ac(a2-6)]GlcNAc(b1-6)Gal(b1-4)Glc
# In short: as §1
# [18] = biological target: Gal(b1-3)[Neu5Ac(b2-6)]GalNAc
# In short: as §1
# [19] = biological target: Gal(b1-4)GalNAc(a1-3)[Fuc(a1-2)]Gal(b1-4)GlcNAc
# In short: as §1
# [20] = biological target: Gal(b1-4)GalNAc(b1-3)[Fuc(a1-2)]Gal(b1-4)GlcNAc
# In short: as §1
# Gal(b1-4)Glc = biological target: Gal(b1-4)Glc
# In short: as §1
# Gal(b1-4)Glc6S = biological target: Gal(b1-4)Glc6S
# In short: as §1
# Gal(b1-4)GlcNAc = biological target: Gal(b1-4)GlcNAc
# In short: as §1
# [21] = biological target: Gal(b1-4)GlcNAc(a1-6)Gal(b1-4)GlcNAc
# In short: as §1
# [22] = biological target: Gal(b1-4)GlcNAc(b1-2)Man(a1-3)[Gal(b1-4)GlcNAc(b1-2)Man(a1-6)]Man(b1-4)GlcNAc(b1-4)GlcNAc
# In short: as §1
# [23] = biological target: Gal(b1-4)GlcNAc(b1-3)Gal(b1-3)GlcNAc
# In short: as §1
# [24] = biological target: Gal(b1-4)GlcNAc(b1-3)Gal(b1-4)Glc
# In short: as §1
# [25] = biological target: Gal(b1-4)GlcNAc(b1-3)Gal(b1-4)GlcNAc
# In short: as §1
binder,measurement,setting,value
B1,glycan array binding signal (z-score),[1],-0.188
same,glycan array binding signal (z-score),Fuc(a1-4)GlcNAc,-0.189
same,glycan array binding signal (z-score),Fuc(b1-3)GlcNAc,0.118
same,glycan array binding signal (z-score),Gal(a1-2)Gal,-0.078
same,glycan array binding signal (z-score),Gal(a1-3)Gal,-0.066
same,glycan array binding signal (z-score),Gal(a1-3)Gal(b1-3)GlcNAc,-0.253
same,glycan array binding signal (z-score),Gal(a1-3)Gal(b1-4)Glc,0.187
same,glycan array binding signal (z-score),Gal(a1-3)Gal(b1-4)GlcNAc,-0.104
same,glycan array binding signal (z-score),[2],-0.176
same,glycan array binding signal (z-score),Gal(a1-3)GalNAc,-0.163
same,glycan array binding signal (z-score),[3],-0.31
same,glycan array binding signal (z-score),Gal(a1-4)Gal(b1-4)Glc,-0.176
same,glycan array binding signal (z-score),Gal(a1-4)Gal(b1-4)GlcNAc,-0.235
same,glycan array binding signal (z-score),Gal(a1-4)GlcNAc,-0.286
same,glycan array binding signal (z-score),Gal(a1-6)Glc,-0.28
same,glycan array binding signal (z-score),Gal(b1-2)Gal,-0.198
same,glycan array binding signal (z-score),Gal(b1-3)Gal,-0.211
same,glycan array binding signal (z-score),Gal(b1-3)Gal(b1-4)GlcNAc,0.136
same,glycan array binding signal (z-score),Gal(b1-3)GalNAc,-0.259
same,glycan array binding signal (z-score),[4],-0.165
same,glycan array binding signal (z-score),[5],0.118
same,glycan array binding signal (z-score),[6],-0.231
same,glycan array binding signal (z-score),Gal(b1-3)GlcNAc,0.36
same,glycan array binding signal (z-score),[7],-0.222
same,glycan array binding signal (z-score),[8],-0.104
same,glycan array binding signal (z-score),[9],-0.271
same,glycan array binding signal (z-score),[10],-0.181
same,glycan array binding signal (z-score),[11],-0.148
same,glycan array binding signal (z-score),[12],-0.194
same,glycan array binding signal (z-score),[13],-0.215
same,glycan array binding signal (z-score),[14],-0.155
same,glycan array binding signal (z-score),[15],-0.234
same,glycan array binding signal (z-score),[16],-0.279
same,glycan array binding signal (z-score),[17],-0.315
same,glycan array binding signal (z-score),[18],-0.254
same,glycan array binding signal (z-score),[19],-0.215
same,glycan array binding signal (z-score),[20],-0.283
same,glycan array binding signal (z-score),Gal(b1-4)Glc,-0.248
same,glycan array binding signal (z-score),Gal(b1-4)Glc6S,-0.136
same,glycan array binding signal (z-score),Gal(b1-4)GlcNAc,-0.262
same,glycan array binding signal (z-score),[21],-0.161
same,glycan array binding signal (z-score),[22],-0.206
same,glycan array binding signal (z-score),[23],-0.252
same,glycan array binding signal (z-score),[24],-0.212
same,glycan array binding signal (z-score),[25],-0.219
